PubChem BioAssay AID1030 (National Center for Advancing Translational Sciences (NCATS), 2008)
Hit rate of the full screen: of about 220,000 compounds, about 16,000 (7.3%) were called active. Inconclusive results, whose numbers are uncertain, are shown with a selection of clear calls. Calls come from the whole dose curve; as a rule, active = well fitted inhibition curve with a large enough effect (not every such curve was filed as active); inconclusive = small, poorly fitted or top-dose-only effect, or another doubt; inactive = no such curve, though single readings can be large or run the other way. Potencies beside an inconclusive call are fits to weak or partial responses and may not hold up.

These compounds were tested against Aldehyde dehydrogenase 1A1 (Homo sapiens) (UniProt P00352) (assay: qHTS Assay for Inhibitors of Aldehyde Dehydrogenase 1 (ALDH1A1)). Conditions: Purified ALDH1A1, NADH fluorescence, propionaldehyde substrate; series mostly up to 75.3 µM.
Chain of UniProt P00352 (P00352 whole entry, looked up): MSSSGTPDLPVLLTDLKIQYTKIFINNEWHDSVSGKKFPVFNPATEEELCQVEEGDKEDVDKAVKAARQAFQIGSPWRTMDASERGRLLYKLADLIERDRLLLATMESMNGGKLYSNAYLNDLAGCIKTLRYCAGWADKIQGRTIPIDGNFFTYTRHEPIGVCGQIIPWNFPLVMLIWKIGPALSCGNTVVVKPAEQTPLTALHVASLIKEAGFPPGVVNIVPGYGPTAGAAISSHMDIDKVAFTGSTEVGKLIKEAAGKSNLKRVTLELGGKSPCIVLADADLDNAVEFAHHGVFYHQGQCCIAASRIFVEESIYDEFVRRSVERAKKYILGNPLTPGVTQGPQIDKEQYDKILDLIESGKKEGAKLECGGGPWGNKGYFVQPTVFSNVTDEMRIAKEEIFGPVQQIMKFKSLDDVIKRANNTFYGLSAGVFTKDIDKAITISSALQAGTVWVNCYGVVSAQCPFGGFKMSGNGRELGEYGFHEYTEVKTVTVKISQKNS
Potency is the fitted concentration of half-maximal effect; tags give direction and shape of the fitted curve.
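Throughout, for activity, negative = inhibition: plate controls were no enzyme wells and a reference inhibitor.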

Potency, active:
O=S(=O)(c1cnc(Cl)c(Cl)c1)N1CCN(c2ncccn2)CC1 0.794 µM
COC(=O)c1ccccc1NC(=O)Cc1nc(-c2ccccc2)sc1-c1ccc(C)cc1 10 µM
O=C(O)COc1ccccc1C1C2C(=O)N(c3ccccc3)C(=O)C2ON1c1ccccc1 (configuration not stated) 25.1 µM
COCCCNS(=O)(=O)c1ccc(OC)c(Cl)c1Cl 10 µM

Potency, inconclusive:
CC1=CN2C(=N)/C(=C/c3ccc(Sc4ccc(Cl)cc4)o3)C(=O)N=C2S1 39.8 µM [inhibitor, single point]
CCc1ccc(C2NC(=S)NC3=C2C(=O)CCC3)cc1 (configuration not stated) 0.891 µM [inhibitor, full curve]
Cc1cc(NC2CCCCC2)n2c(n1)nc1ccccc12 35.5 µM [inhibitor, single point]
COc1ccc(/C=N/NC(=O)c2ccc(CSc3nc(C)cc(C)n3)cc2)cc1O 20 µM [inhibitor, partial curve]
O=c1cc(N2CCN(c3ccccc3)CC2)[nH]c(=O)n1C1CCCCC1 12.6 µM [inhibitor, partial curve]
CN1Cc2c(N3CCOCC3)nc(SCc3ccccc3)c(C#N)c2CC1(C)C 25.1 µM [inhibitor, partial curve, poor fit]
CCOC(=O)CSc1nc(Nc2ccc3c(c2)OCO3)c2ccccc2n1 39.8 µM [inhibitor, single point]
N#Cc1ccccc1/C=N/Nc1nc(-c2ccccc2)c2cc(Br)ccc2n1 11.2 µM [inhibitor, partial curve]
Cc1c(Cl)c([N+](=O)[O-])nn1CCCC(=O)Nc1ccc(Cl)cc1Cl 39.8 µM [inhibitor, single point]
CN(C)S(=O)(=O)c1cccc(NC(=O)c2cc(-c3cccs3)nn2-c2cccc(Cl)c2)c1 39.8 µM [inhibitor, single point]
NC(=S)N=Nc1c(O)n(CCCl)c2ccccc12 3.98 µM [inhibitor, full curve]
O=C(NCc1ccco1)c1cccc(-c2nnc(-c3ccccc3)o2)c1 39.8 µM [inhibitor, single point]
CC(=O)C1=C(c2ccccc2)OC(N)=C(C#N)C1c1ccccc1C (configuration not stated) 39.8 µM [inhibitor, single point]
COc1cc(/C=N/Nc2cccc(C)c2)ccc1OC(=O)c1cccs1 25.1 µM [inhibitor, single point]
O=C(Nc1ccccc1N1CCOCC1)c1ccccc1[N+](=O)[O-] 0.946 µM [inhibitor, full curve, poor fit]
CCOc1ccc2[nH]c(=O)c(CN(CCO)Cc3nnnn3CCc3ccccc3)cc2c1 22.4 µM [inhibitor, partial curve]
Cc1nc2nc(-c3ccco3)[nH]n2c(=O)c1C 22.4 µM [inhibitor, partial curve]
O=C(N/N=C/c1ccccc1)c1ccc(N2CCOCC2)c([N+](=O)[O-])c1 3.77 µM [inhibitor, single point]
CCOC(=O)c1sc2nc(CSc3ccccc3)nc(N3CCC(C(N)=O)CC3)c2c1C 22.4 µM [inhibitor, single point]
CC(C)Cn1cc(C(=O)NCCCN2CCCC2=O)c2c3ccccc3n(C)c2c1=O 31.6 µM [inhibitor, partial curve]

Potency, inactive:
H-LVVYPWTQR-OH
CC1CCN(CC(=O)NCc2ccco2)CC1
CN1CCN(CC(=O)Nc2cccc([N+](=O)[O-])c2)CC1
COc1ccc(Nc2ccc3nnc(-c4ccc(Br)cc4)n3n2)cc1
Fc1cccc(Cl)c1-c1nnc2ccc3ccccc3n12
COc1ccc(OCCSc2nc(N)cc(=O)[nH]2)cc1
CC(C)(C)OC(=O)NCCCC1=CC2=CC(=O)C(C)(OC(=O)c3cccs3)C(=O)C2=CO1 (configuration not stated)
O=C(O)CCCCCN1C(=O)/C(=C\c2ccncc2)SC1=S
O=C(Nc1ccc(NC(=O)C2CCCCC2)cn1)c1ccco1
CCOc1ccccc1NC(=O)c1ccc([N+](=O)[O-])cc1
COc1cc(/C=C2/NC(=O)N(CC(=O)Nc3cccc(C)c3)C2=O)ccc1OCC(N)=O
CC(SCc1ccccc1)C(=O)Nc1ccc(F)cc1 (configuration not stated)

activity, negative = inhibition, inactive:
COC(=O)C/C=C\[C@@H](C)[C@@H](/C=N\O[C@@H](C)c1cn([C@H]2COC[C@H]2O)nn1)NS(=O)(=O)c1ccc(C)cc1 -1.01% [at 13.5 µM]
